Measured values: PubChem BioAssay (NCATS)
Where “and” joins values, the source holds several entries; their conditions need not be identical. Identical values can stand only once. The list shows a part of the results. Further columns of the screen follow, without active or inactive calls. For some of these results: Compounds called inactive in the main read-out are mostly missing here. For some of these results: Words in brackets tell the shape of the fitted curve; partial curves, single points and poor fits give uncertain potencies.

Experiments:
[1] = target: Nicotinamide N-methyltransferase (Homo sapiens) (UniProt P40261); test: Confirmatory Screen for Target Class Profiling of Small Molecule Inhibitors of Methyltransferases (AID 1745852); conditions: MTase-Glo luminescence, SAH detection, recombinant enzyme; measured here: NNMT inhibition potency;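 further: inhibitor potency for blocking SAH production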
Chain of UniProt P40261 (P40261 whole entry, looked up): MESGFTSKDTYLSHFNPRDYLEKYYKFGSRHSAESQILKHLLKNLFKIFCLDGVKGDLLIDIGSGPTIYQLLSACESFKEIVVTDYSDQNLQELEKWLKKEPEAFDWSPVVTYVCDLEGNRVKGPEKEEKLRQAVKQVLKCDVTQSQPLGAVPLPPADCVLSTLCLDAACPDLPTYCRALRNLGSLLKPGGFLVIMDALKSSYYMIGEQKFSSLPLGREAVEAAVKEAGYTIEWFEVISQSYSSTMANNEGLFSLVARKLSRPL

[2] = qHTS for identification of novel therapeutic agents for treatment of microphthalmiaassociated transcription factor (MiT) renal cell carcinoma (RCC) (AID 1963991); conditions: CellTiter-Glo, 48 h; for z-score: stronger effect = lower value
Method in brief: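 Three TFE3-fusion RCC lines (UOK109, UOK124, UOK145), 500 cells/well in complete medium, were treated with MIPE 4.0 compounds for 48 hours at 37 C. Viability was by CellTiter-Glo luminescence, normalized to DMSO (100%) and empty wells (0%); curves fitted over 11 concentrations.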

[3] = target: Phenylethanolamine N-methyltransferase (Homo sapiens) (UniProt P11086); test: Confirmatory Screen for Target Class Profiling of Small Molecule Inhibitors of Methyltransferases (AID 1745852); conditions: MTase-Glo luminescence, SAH detection, recombinant enzyme; measured here: PNMT inhibition potency;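 further: inhibitor potency for blocking SAH production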
Chain of UniProt P11086 (P11086 whole entry, looked up): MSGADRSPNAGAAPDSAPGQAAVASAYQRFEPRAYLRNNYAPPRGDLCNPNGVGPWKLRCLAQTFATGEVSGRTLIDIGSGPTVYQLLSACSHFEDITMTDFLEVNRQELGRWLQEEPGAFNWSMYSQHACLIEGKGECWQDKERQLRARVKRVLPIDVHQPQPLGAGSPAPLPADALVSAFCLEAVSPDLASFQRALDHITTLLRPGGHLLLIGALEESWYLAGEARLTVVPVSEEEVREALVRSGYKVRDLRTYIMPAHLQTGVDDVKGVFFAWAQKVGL

[4] = NCATS anti-infectives library activity on the primary C. elegans qHTS viability assay (AID 1745855); conditions: C. elegans worm area imaging
Method in brief: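 Viability read-out is GFP fluorescence of PE254-GFP-FLuc C. elegans, measured by laser cytometry (488 nm) at day 0, 3 and 7. Ten L1 worms per well were incubated 7 days at 21 °C with compounds and bacterial capsules in S medium.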

[5] = qHTS drug screen for cell cycle checkpoint inhibitors in PARPi-resistant BRCA-mutant ovarian cancer cell lines. (AID 1963452); conditions: PEO1/OlaR viability, CellTiter-Glo luminescence, 96 h
Method in brief: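 PEO1, PEO4 and PEO1/OlaR ovarian cancer cells, 600 per well, exposed 96 h at 37C to a dilution series. Viability read by CellTiter-Glo luminescence, normalized to DMSO and empty wells; activity summarized as Z-AUC.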

[6] = Nrf2 qHTS screen for inhibitors: Validation (AID 493153); conditions: A549 ARE-Fluc reporter, 18-24 h; AC50: CellTiter-Fluor fluorescence read, measured here: cytotoxicity CellTiter-Fluor AC50; viability change: measured here: cytotoxicity max response
Method in brief: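 A549 cells carrying ARE-firefly luciferase reporter, 5000 cells/well in 5% FBS OPTI-MEM, treated with compound over a concentration series for 18-24 h at 37 C. Luciferase luminescence gave Nrf2 activity; CellTiter-Fluor fluorescence gave viability.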

[7] = S16 Schwann cell PMP22 intronic element beta-lactamase assay (AID 624044); conditions: S16 rat Schwann cells, PMP22 element beta-lactamase FRET, 24 h; further: nearly all actives have a fitted effect of over 15% in size
Method in brief: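 Rat S16 Schwann cells with beta-Lac driven by a PMP22 intronic element, compound-treated 24 h at 37 °C. LiveBLAzer FRET B/G read: 460 nm normalized to potassium clavulanate vs DMSO; 535 nm FRET as viability; concentration-effect curves classified.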

[8] = TFE3-RCC UOK109 viability, measured here: UOK109 Z-AUC
[9] = TFE3-RCC viability, measured here: UOK124 Z-AUC
[10] = TFE3-RCC viability, measured here: UOK124 cell viability
[11] = TFE3-RCC viability, measured here: UOK145 Z-AUC
[12] = TFE3-RCC viability, measured here: UOK145 cell viability
[13] = day 7, measured here: worm number
[14] = measured here: PEO1 parental viability
[15] = day 7, measured here: worm area, day 3
[16] = day 7, measured here: worm number, day 3
Tags describe the fitted curve by direction and shape.

## N#Cc1c(C2CCNCC2)cc(-c2c(O)cccc2OCC2CC2)nc1N
[1]
  IC50: 21.5 µM [falling, partial curve]
[2]; [8]
  z-score: -0.323
[2]; [9]
  z-score: -0.27
[2]; [10]
  AC50: 23.5 µM [falling, partial curve]
[2]; [11]
  z-score: 0.712
[2]; [12]
  AC50: 16.6 µM [falling, partial curve]

## CCOc1ccc(-c2ccc(Cn3c(CC(C)(C)C(=O)O)c(SC(C)(C)C)c4cc(OCc5ccc(C)cn5)ccc43)cc2)cn1
[3]
  IC50: 30.4 µM [falling, single point]

## COc1cccc(NC(=O)Cn2c(=O)oc3cc(S(=O)(=O)N4CC(C)CC(C)C4)ccc32)c1 (configuration not stated)
[3]
  IC50: 12.1 µM [falling, partial curve]

## O=C(Nc1ccc(C(F)(F)F)cn1)N1CCN(c2ncccc2C(F)(F)F)CC1
[3]
  IC50: 21.5 µM [falling, partial curve]

## O=C(Cn1c(=O)oc2cc(S(=O)(=O)N3CCCC3)ccc21)Nc1ccc(F)c(Cl)c1
[3]
  IC50: 6.81 µM [falling, partial curve]

## COc1ccccc1OCCNCC(O)CCOc1cccc2[nH]c3ccccc3c12 (configuration not stated)
[3]
  IC50: 3.83 µM [falling, full curve]

## CC(=O)Nc1cc(-c2cc(C(=O)NCc3cccnc3)c3c(c2)N(C)CCO3)ccn1
[3]
  IC50: 44.1 µM [falling, partial curve, poor fit]

## O=C(O)c1ccc(O)c2ncc(N3CCCN(CCc4cccc5ccccc45)CC3)cc12
[3]
  IC50: 24.3 µM [falling, partial curve]

## CC1CC(C)CN(S(=O)(=O)c2ccc3c(c2)oc(=O)n3CC(=O)Nc2cccc(F)c2)C1 (configuration not stated)
[3]
  IC50: 15.2 µM [falling, partial curve]

## COc1c(-c2ccc3cc(NS(C)(=O)=O)ccc3c2)cc(-n2ccc(=O)[nH]c2=O)cc1C(C)(C)C
[4]; [13]
  AC50: 0.145 µM [falling, single point]

## CN1CCN(C2CCC(n3cc(-c4ccc(Oc5ccccc5)cc4)c4c(N)ncnc43)CC2)CC1 (configuration not stated)
[3]
  IC50: 17.1 µM [falling, partial curve]
[5]; [14]
  AC50: 871 nM [falling, partial curve]
[5]; measured here: PEO4 viability
  AC50: 1740 nM [falling, full curve]

## Cc1ccc(NS(=O)(=O)c2ccc3[nH]c(=O)[nH]c3c2)cc1F
[3]
  IC50: 21.5 µM [falling, partial curve]

## Cc1ccccc1-c1[nH]nc2ncc(-c3c(C)noc3C)nc12
[3]
  IC50: 44.1 µM [falling, partial curve, poor fit]

## COc1cccc(NC(=O)Cn2c(=O)oc3cc(S(=O)(=O)N4CCCC4)ccc32)c1
[3]
  IC50: 21.5 µM [falling, partial curve]

## CCc1cccc(NC(=O)Cn2c(=O)oc3cc(S(=O)(=O)N4CC(C)CC(C)C4)ccc32)c1 (configuration not stated)
[3]
  IC50: 7.64 µM [falling, full curve]

## Nc1nc(NCCNc2ncc(-n3ccnc3)c(-c3ccc(Cl)cc3Cl)n2)ccc1[N+](=O)[O-]
[1]
  IC50: 24.1 µM [falling, partial curve]
[2]; [8]
  z-score: -1.4
[2]; [9]
  z-score: -0.514
[2]; [10]
  AC50: 13.2 µM [falling, partial curve]
[2]; [11]
  z-score: -0.605
[2]; [12]
  AC50: 9.35 µM [falling, full curve]

## CC1CC(C)CN(S(=O)(=O)c2ccc3c(c2)oc(=O)n3CC(=O)Nc2ccc(Cl)cc2)C1 (configuration not stated)
[3]
  IC50: 6.07 µM [falling, partial curve]

## C[S+](=O)([O-])N1CCC(Cn2ccc3c(N4CCOCC4)nc(-c4cccc5[nH]ncc45)cc32)CC1
[3]
  IC50: 38.3 µM [falling, single point]

## CC(=O)Nc1ccc2c(c1)C1C=CCC1C(c1ccccc1F)N2 (configuration not stated)
[3]
  IC50: 24.1 µM [falling, partial curve, poor fit]

## CCOC(=O)c1ccc(NC(=O)Cn2c(=O)oc3cc(S(=O)(=O)N4CCCC4)ccc32)cc1
[3]
  IC50: 17.1 µM [falling, partial curve]

## Nc1ncnc2c1ncn2[C@H]1O[C@@H](C(=O)N2CCN(CC(=O)Nc3cccc4c3CNC4=O)CC2)[C@H](O)[C@@H]1O
[3]
  IC50: 21.5 µM [falling, partial curve]

## Cc1ccsc1CCNC(=O)Cn1c(=O)oc2cc(S(=O)(=O)N3CCCC3)ccc21
[3]
  IC50: 12.1 µM [falling, partial curve]

## C/C(=N\NC(=O)C(NC(=O)c1ccccc1)c1n[nH]c(=O)c2ccccc12)c1cccc(Br)c1 (configuration not stated)
[4]; [15]
  AC50: 18.3 µM [falling, partial curve, poor fit]

## COCCn1ccc2c(C3=CCOCC3)nc(-c3cccc4[nH]ccc34)cc21
[3]
  IC50: 39.3 µM [falling, single point]

## O=c1c2ccccc2n2c(-c3cc(Cl)ccc3O)nnc2n1Cc1ccc(F)cc1
[3]
  IC50: 27.1 µM [falling, partial curve, poor fit]

## O=C(Cn1c(=O)oc2cc(S(=O)(=O)N3CCCC3)ccc21)NCCC1=CCCCC1
[3]
  IC50: 6.81 µM [falling, full curve]

## Cc1ccccc1-n1c(Cn2nc(-c3cccc(O)c3)c3c(N)ncnc32)nc2cccc(C)c2c1=O
[1]
  IC50: 24.1 µM [falling, partial curve, poor fit]
[5]; [14]
  AC50: 17400 nM [falling, single point]
[2]; [8]
  z-score: -1.14
[2]; [9]
  z-score: 0.516
[2]; [10]
  AC50: 0.418 µM [falling, full curve]
[2]; [11]
  z-score: -0.374
[2]; [12]
  AC50: 0.264 µM [falling, full curve]

## COc1cccc([C@H]2Nc3ccc(S(=O)(=O)Nc4ccc(C)cc4C)cc3[C@H]3C=CC[C@H]32)c1
[3]
  IC50: 27.1 µM [falling, partial curve, poor fit]

## CC(NC(=O)c1ccc2c(=O)nc3c(-c4cccc(F)c4)n[nH]n3c2c1)c1ccc(F)cc1 (configuration not stated)
[3]
  IC50: 24.1 µM [falling, partial curve, poor fit]

## Cc1cc(NS(=O)(=O)c2ccc3[nH]c(=O)[nH]c3c2)ccc1Br
[3]
  IC50: 17.1 µM [falling, partial curve]

## O=C(Cn1c(=O)oc2cc(S(=O)(=O)N3CCCC3)ccc21)Nc1cccc(Cl)c1
[3]
  IC50: 15.2 µM [falling, partial curve]

## CCc1cccc(NC(=O)Cn2c(=O)oc3cc(S(=O)(=O)N4CCCCC4)ccc32)c1
[3]
  IC50: 15.2 µM [falling, partial curve]

## O=C1c2ccccc2C(=O)c2cc(S(=O)(=O)NCCO)ccc21
[3]
  IC50: 24.1 µM [falling, partial curve, poor fit]

## Cc1cc(=O)oc2c(C=O)c(O)ccc12
[3]
  IC50: 24.1 µM [falling, partial curve]

## O=C1c2ccccc2C(=O)c2cc(S(=O)(=O)N(CCO)CCO)ccc21
[3]
  IC50: 12.1 µM [falling, partial curve]

## CCOC(=O)C1CCCN(S(=O)(=O)c2ccc3[nH]c(=O)[nH]c3c2)C1 (configuration not stated)
[3]
  IC50: 21.5 µM [falling, partial curve]

## COc1cccc(NC(=O)Cn2c(=O)oc3cc(S(=O)(=O)N4CCCCC4C)ccc32)c1 (configuration not stated)
[3]
  IC50: 21.5 µM [falling, partial curve]

## C=CC[C@@H]1/C=C(\C)C[C@H](C)C[C@H](OC)[C@H]2O[C@@](O)(C(=O)C(=O)N3CCCC[C@H]3C(=O)O[C@H](/C(C)=C/[C@@H]3CC[C@@H](O)[C@H](OC)C3)[C@H](C)[C@@H](O)CC1=O)[C@H](C)C[C@@H]2OC
[4]; [13]
  AC50: 5.15 µM [falling, partial curve, poor fit]
[4]; [15]
  AC50: 14.5 µM [falling, partial curve, poor fit]
[4]; [16]
  AC50: 0.0578 µM [falling, full curve, poor fit]
[5]; [14]
  AC50: 13800 nM [falling, single point]
[5]; measured here: PEO4 viability
  AC50: 24500 nM [falling, single point]

## C[C@H]1c2cccc(O)c2C(O)=C2C(=O)[C@]3(O)C(O)=C(C(N)=O)C(=O)[C@@H](N(C)C)[C@@H]3[C@@H](O)[C@@H]21
[6]
  viability change: 6.39%
[4]; [13]
  AC50: 1.63 µM [falling, full curve, poor fit]
[4]; [16]
  AC50: 2.58 µM [falling, partial curve, poor fit]
[5]; [14]
  AC50: 24.5 µM [falling, single point] and 19.5 µM [falling, single point]
[5]; measured here: PEO4 viability
  AC50: 15.5 µM [falling, single point] and 13.8 µM [falling, single point]
[2]; [8]
  z-score: -0.115
[2]; [9]
  z-score: 0.197
[2]; [11]
  z-score: -0.331

## NS(=O)(=O)c1ccc(NC(=O)Nc2ccc(F)cc2)cc1
[4]; [13]
  AC50: 20.5 µM [falling, partial curve]
[4]; [15]
  AC50: 14.5 µM [falling, partial curve, poor fit]

## CN1CC[C@@H](c2c(O)cc(O)c3c(=O)cc(-c4ccccc4Cl)oc23)[C@@H](O)C1
[4]; [15]
  AC50: 1.29 µM [falling, full curve, poor fit]
[5]; [14]
  AC50: 490 nM [falling, full curve]
[5]; measured here: PEO4 viability
  AC50: 490 nM [falling, full curve]
[2]; [10]
  AC50: 0.132 µM [falling, full curve]
[2]; [12]
  AC50: 0.0662 µM [falling, full curve]

## Cc1cc(/C=C\c2ccc3cc(N(C)C)ccc3[n+]2C)c(C)n1-c1ccccc1
[7]; measured here: 460 nm blue channel
  AC50: 2.13 µM [falling, partial curve, poor fit]
[7]; measured here: 530 nm viability channel
  AC50: 0.0891 µM [falling, full curve, poor fit]
[4]; [13]
  AC50: 9.16 µM [falling, partial curve, poor fit]
[4]; [15]
  AC50: 2.05 µM [falling, partial curve, poor fit]
[4]; [16]
  AC50: 25.8 µM [falling, single point]

## OC[C@H]1O[C@@H](Oc2cc(O)cc(/C=C/c3ccc(O)cc3)c2)[C@H](O)[C@@H](O)[C@@H]1O
[4]; [16]
  AC50: 0.145 µM [falling, partial curve, poor fit]
[5]; measured here: PEO4 viability
  AC50: 7.8 nM [rising, full curve, poor fit]
